In the supplement of paper PMC3334620:
Whole data set: some 33,000 sequences, median “E-score (-0.5 to 0.5)” near -0.056, cut for the highest 2% near 0.38. This is one part of the list.

target: Stb4 (UniProt P50104); assay: PBM E-score (8-mer binding enrichment) (E-score (-0.5 to 0.5)); higher = stronger / more preferred TF binding; most listed sequences are background and not binding sites; details: protein concentration: 200 nM; construct: GST-DNA-binding domain
Summary of the method: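 GST-tagged yeast TFs (full-length or DNA-binding domain) were made by PURExpress in vitro transcription/translation and applied at about 100-200 nM to universal all-10-mer Agilent arrays. The arrays were made double-stranded by primer extension, on fresh or once-stripped slides. Bound protein was detected with fluorescent anti-GST, and scans were normalised with masliner. Each ungapped eight-base word, pooled with its reverse complement, received an E-score (modified Wilcoxon-Mann-Whitney statistic) from the Universal PBM Analysis Suite.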

| Sequence | PBM E-score |
| --- | --- |
| ACTCCCTC | -0.217 |
| ACTGACGG | 0.11 |
| GACGCATA | -0.0663 |
| GACGTACA | -0.0727 |
| GTTTCAGA | -0.1 |
| AGCGAGCC | 0.168 |
| AGAGAGTC | -0.253 |
| ACCCAAGA | -0.0958 |
| CCGTCGGC | 0.329 |
| TGATCAAA | -0.237 |
| ATAGTAAA | -0.0702 |
| CAACCCGG | 0.187 |
| GAAATAGC | 0.0755 |
| CCAGTCAC | -0.0768 |
| CTGCGGCA | -0.024 |
| CGTTACCC | 0.081 |
| AACCGCCA | -0.0477 |
| ATGCTAAC | 0.0078 |
| ACTCCGAC | 0.32 |
| AGACCGCT | -0.157 |
| CCACCTAA | -0.125 |
| CTCAGAAG | -0.183 |
| CATAACAA | -0.0176 |
| ACGGGTGG | 0.173 |

| Sequence | PBM E-score |
| --- | --- |
| AAAATTGC | 0.0311 |
| ATGGTTCC | 0.23 |
| CAATGGTG | -0.219 |
| CAACTTGC | -0.192 |
| GTGGGAGA | -0.188 |
| CGACCGAG | 0.273 |
| CATCGAGA | -0.158 |
| AAAATGTC | 0.0616 |
| CGCGCACA | 0.0417 |
| AGCTCTGG | -0.19 |
| CACACGTC | -0.116 |
| AAGTCACT | -0.146 |
| CAGATGTC | -0.0282 |
| ACTCCCGG | 0.372 |
| AACGGAGC | 0.0874 |
| CCCCGTAC | -0.155 |
| GGCTGCCA | -0.0326 |
| AGACACCG | -0.0258 |
| ACCCATGC | -0.177 |
| TCATCAGA | -0.209 |
| GGTGGTAC | 0.155 |
| AACCAACG | -0.0946 |
| TATTTCGA | 0.00011 |
| CCTCCCTA | -0.108 |

| Sequence | PBM E-score |
| --- | --- |
| CTCAGCTC | -0.0376 |
| GATGGAGA | 0.0275 |
| ATGACAGC | -0.336 |
| GAGGAAGC | -0.0209 |
| ACGGGGCC | 0.0121 |
| CTCGATCC | 0.135 |
| CTTTAAGC | 0.0905 |
| CTCTACCC | -0.109 |
| AAGATCTC | -0.249 |
| GGGAACAC | 0.194 |
| AATACTAG | -0.132 |
| CGACCAAC | -0.0813 |
| GTGGAAAA | -0.0215 |
| GTGCGAAA | -0.159 |
| AGACCACG | -0.204 |
| AAACAAGA | -0.0845 |
| AGGACTTC | -0.164 |
| GGTGAGTA | -0.183 |
| AGCAGCGC | -0.139 |
| CAAAACCC | 0.251 |
| AGTAGCAA | 0.00951 |
| CCAGCGTC | -0.147 |
| CACTCATC | -0.079 |
| CGCGCCAC | -0.18 |

| Sequence | PBM E-score |
| --- | --- |
| AGACCCAA | -0.186 |
| CGCGATCC | 0.142 |
| GACAATGC | -0.0855 |
| GAGATCCA | 0.0196 |
| TAGTTATA | -0.0948 |
| ACACGAAA | -0.0666 |
| GTCAATTA | -0.00661 |
| ACGGTGCG | -0.0311 |
| AGAGATTC | -0.00647 |
| GGCAACAA | -0.0697 |
| AGATCTGG | -0.188 |
| AATTCCGA | 0.46 |
| GTCACTGA | -0.129 |
| CATCTTCG | 0.0105 |
| ACATGCCT | -0.245 |
| TATTGTCA | -0.136 |
| ATTCTGAG | -0.0695 |
| ATTTCACA | -0.0887 |
| ACCGCCGA | 0.298 |
| CTTACAAA | -0.0816 |
| GACTACCA | -0.129 |
| CCGGGTAA | 0.418 |
